Reference: the supplement of paper PMC6609913
Structures can show the parent of a compound that is named as a salt. ± gives the standard deviation of the averaged measurements. Over roughly 1,300 compounds, “normalised cell viability” has its median near 1; the lowest 2% begin near 0.14. Some of the results follow.

System: V-C8 (BRCA2-deficient hamster cells)
Assay: normalised cell viability (fraction of plate median); higher = more viable cells (less toxic)
Conditions: 5 µM
Method in brief: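 In two screens, library drugs at 5 μM were given for 3 days (screen 1) or 6 days (screen 2) to hamster V-C8 cells without BRCA2 and V-C8 cells with BRCA2 restored, seeded 24 h earlier in 96-well plates. A resazurin assay gave the cell viability readout, expressed as modified robust per cent of sample against the plate median, with triplicate wells averaged.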

Work on `CN(C)CCOC(=O)COc1ccc(Cl)cc1` [Meclofenoxate hydrochloride] yielded a normalised cell viability (treatment time: 3 days) of 1.03 ± 0.036 and a normalised cell viability (treatment time: 6 days) of 0.992 ± 0.057.

In the case of `N=C(N)N/N=C/c1c(Cl)cccc1Cl` [Guanabenz acetate], the normalised cell viability (treatment time: 3 days) is reported as 1.047 ± 0.0079 and the normalised cell viability (treatment time: 6 days) is reported as 0.973 ± 0.067.

`OC(CCN1CCCCC1)(c1ccccc1)C1CCCCC1` (stereo not drawn) [Trihexyphenidyl-D,L Hydrochloride] gave a normalised cell viability (treatment time: 3 days) of 1.02 ± 0.023 and a normalised cell viability (treatment time: 6 days) of 1.03 ± 0.062.

For `CCCc1nc(C(C)(C)O)c(C(=O)O)n1Cc1ccc(-c2ccccc2-c2nnn[nH]2)cc1` [Olmesartan], the normalised cell viability (treatment time: 3 days) was 1.09 ± 0.073 and the normalised cell viability (treatment time: 6 days) was 1.11 ± 0.034.

Molecule `CN(CCOc1ccc(CC2SC(=O)NC2=O)cc1)c1ccccn1` (stereo not drawn) [Rosiglitazone Hydrochloride] has a normalised cell viability (treatment time: 3 days) of 0.996 ± 0.043 and a normalised cell viability (treatment time: 6 days) of 0.901 ± 0.08.

Molecule `CCC(=O)OCC(=O)[C@@]1(OC(=O)CC)[C@H](C)C[C@H]2[C@H]3[C@H]([C@@H](O)C[C@@]21C)[C@@]1(C)C=CC(=O)C=C1C[C@H]3Cl` [Alclometasone dipropionate] has a normalised cell viability (treatment time: 3 days) of 0.957 ± 0.037 and a normalised cell viability (treatment time: 6 days) of 1.03 ± 0.024.

Molecule `CC(N)C12CC3CC(CC(C3)C1)C2` (stereo not drawn) [Rimantadine Hydrochloride] has a normalised cell viability (treatment time: 3 days) of 1.04 ± 0.017 and a normalised cell viability (treatment time: 6 days) of 1.04 ± 0.029.

With `c1ccc2c(c1)CCCc1cc(NCCN3CCOCC3)nnc1-2` the normalised cell viability (treatment time: 3 days) was 0.351 ± 0.016 and the normalised cell viability (treatment time: 6 days) was 0.496 ± 0.056.

`COc1ccc(C[C@@H]2c3cc(OC)c(OC)cc3CC[N@+]2(C)CCC(=O)OCCCCCOC(=O)CC[N@@+]2(C)CCc3cc(OC)c(OC)cc3[C@H]2Cc2ccc(OC)c(OC)c2)cc1OC` [Cisatracurium besylate] was tested, and the normalised cell viability (treatment time: 3 days) was 0.939 ± 0.038 and the normalised cell viability (treatment time: 6 days) was 0.934 ± 0.028.

`Nc1cc(-c2ccncc2)c[nH]c1=O` [Amrinone] gave a normalised cell viability (treatment time: 3 days) of 0.938 ± 0.029 and a normalised cell viability (treatment time: 6 days) of 0.951 ± 0.018.

`OCCOCCN1CCN(C(c2ccccc2)c2ccc(Cl)cc2)CC1` (stereo not drawn) [Hydroxyzine dihydrochloride] showed a normalised cell viability (treatment time: 3 days) of 1.2 ± 0.045 and a normalised cell viability (treatment time: 6 days) of 1.08 ± 0.065.

`C=CC1=C(C(=O)O)N2C(=O)[C@@H](NC(=O)/C(=N\OCC(=O)O)c3csc(N)n3)[C@H]2SC1` [Cefixime] gave a normalised cell viability (treatment time: 3 days) of 1.035 ± 0.01 and a normalised cell viability (treatment time: 6 days) of 1.13 ± 0.048.

For `Cc1cc(-n2c(=O)[nH]c(=O)n(C)c2=O)ccc1Oc1ccc(SC(F)(F)F)cc1` [Toltrazuril], the normalised cell viability (treatment time: 3 days) was 1.07 ± 0.044 and the normalised cell viability (treatment time: 6 days) was 1 ± 0.073.

For `Cc1ccccc1N1C(=O)c2cc(S(N)(=O)=O)c(Cl)cc2NC1C` (stereo not drawn) [Metolazone], the normalised cell viability (treatment time: 3 days) was 1.11 ± 0.073 and the normalised cell viability (treatment time: 6 days) was 1.06 ± 0.07.

Work on `COc1ccc2[nH]c([S+]([O-])Cc3ncc(C)c(OC)c3C)nc2c1` (stereo not drawn) [Omeprazole] yielded a normalised cell viability (treatment time: 3 days) of 0.982 ± 0.039 and a normalised cell viability (treatment time: 6 days) of 0.945 ± 0.029.

`CC(=O)Nc1ccc(O)cc1` [Acetaminophen] was tested, and the normalised cell viability (treatment time: 3 days) was 0.978 ± 0.032 and the normalised cell viability (treatment time: 6 days) was 1.02 ± 0.033.

For `CO/N=C(\C(=O)N[C@@H]1C(=O)N2C(C(=O)O)=C(C[N+]3(C)CCCC3)CS[C@H]12)c1csc(N)n1` [Cefepime hydrochloride], the normalised cell viability (treatment time: 3 days) was 0.863 ± 0.17 and the normalised cell viability (treatment time: 6 days) was 0.934 ± 0.037.

`CCOC(=O)[C@H](CCc1ccccc1)N[C@@H](C)C(=O)N1CCC[C@H]1C(=O)O` [Enalapril maleate] showed a normalised cell viability (treatment time: 3 days) of 0.941 ± 0.063 and a normalised cell viability (treatment time: 6 days) of 0.959 ± 0.044.

`CC(Oc1c(Cl)cccc1Cl)C1=NCCN1` (stereo not drawn) [Lofexidine] showed a normalised cell viability (treatment time: 3 days) of 0.775 ± 0.017 and a normalised cell viability (treatment time: 6 days) of 0.855 ± 0.045.

For `CC1=C(CC(=O)O)c2cc(F)ccc2/C1=C\c1ccc([S+](C)[O-])cc1` (stereo not drawn) [Sulindac], the normalised cell viability (treatment time: 3 days) was 0.929 ± 0.041 and the normalised cell viability (treatment time: 6 days) was 0.976 ± 0.052.

`CCc1cccc2c3c([nH]c12)C(CC)(CC(=O)O)OCC3` (stereo not drawn) [Etodolac] gave a normalised cell viability (treatment time: 3 days) of 1.03 ± 0.12 and a normalised cell viability (treatment time: 6 days) of 0.957 ± 0.029.

`Cc1noc(NS(=O)(=O)c2ccc(N)cc2)c1C` [Sulfisoxazole] showed a normalised cell viability (treatment time: 3 days) of 1.1 ± 0.043 and a normalised cell viability (treatment time: 6 days) of 0.999 ± 0.021.

With `CC[N+](CC)(CC)CCC(O)(c1ccccc1)C1CCCCC1` (stereo not drawn) [Tridihexethyl chloride] the normalised cell viability (treatment time: 3 days) was 0.939 ± 0.08 and the normalised cell viability (treatment time: 6 days) was 1.05 ± 0.071.

With `CN(C)CCCO[C@@H]1[C@H]2OC(C)(C)O[C@H]2O[C@@H]1[C@H](O)CO` [Amiprilose hydrochloride] the normalised cell viability (treatment time: 3 days) was 0.996 ± 0.049 and the normalised cell viability (treatment time: 6 days) was 1.07 ± 0.082.

`C[C@]12CC[C@@H]3c4ccc(O)cc4CC[C@H]3[C@@H]1C[C@@H](O)[C@@H]2O` [Estriol] gave a normalised cell viability (treatment time: 3 days) of 0.999 ± 0.034 and a normalised cell viability (treatment time: 6 days) of 1.01 ± 0.065.

In the case of `CN1CCC(=C2c3ccccc3CCc3sccc32)CC1` [Pizotifen malate], the normalised cell viability (treatment time: 3 days) is reported as 1.06 ± 0.044 and the normalised cell viability (treatment time: 6 days) is reported as 0.967 ± 0.043.

Molecule `CN1CCOC(c2ccccc2)c2ccccc2C1` (stereo not drawn) [Nefopam hydrochloride] has a normalised cell viability (treatment time: 3 days) of 1.02 ± 0.099 and a normalised cell viability (treatment time: 6 days) of 1.03 ± 0.053.

Molecule `CN(C)[C@@H]1C(O)=C(C(=O)NCNCCCC[C@H](N)C(=O)O)C(=O)[C@@]2(O)C(O)=C3C(=O)c4c(O)cccc4[C@@](C)(O)[C@H]3C[C@@H]12` [Lymecycline] has a normalised cell viability (treatment time: 3 days) of 1.01 ± 0.039 and a normalised cell viability (treatment time: 6 days) of 1.01 ± 0.089.

`CCCCNc1ccc(C(=O)OCCN(C)C)cc1` showed a normalised cell viability (treatment time: 3 days) of 1.03 ± 0.025 and a normalised cell viability (treatment time: 6 days) of 1.1 ± 0.061.

With `CCN(CC)CCOc1ccc(C(=C(Cl)c2ccccc2)c2ccccc2)cc1` [Clomiphene citrate (Z,E)] the normalised cell viability (treatment time: 3 days) was 0.142 ± 0.002 and the normalised cell viability (treatment time: 6 days) was 0.118 ± 0.011.

Work on `CC(O)(P(=O)(O)O)P(=O)(O)O` [Etidronic acid, disodium salt] yielded a normalised cell viability (treatment time: 3 days) of 1.03 ± 0.024 and a normalised cell viability (treatment time: 6 days) of 1.05 ± 0.046.

`COc1ccccc1N1CCN(CCCCNC(=O)c2ccc3ccccc3c2)CC1` gave a normalised cell viability (treatment time: 3 days) of 0.971 ± 0.042 and a normalised cell viability (treatment time: 6 days) of 1.02 ± 0.095.

In the case of `CCC1NC(=O)c2cc(S(N)(=O)=O)c(Cl)cc2N1` (stereo not drawn) [Quinethazone], the normalised cell viability (treatment time: 3 days) is reported as 0.937 ± 0.096 and the normalised cell viability (treatment time: 6 days) is reported as 1 ± 0.077.

`O=C1[C@H](CC[C@H](O)c2ccc(F)cc2)[C@@H](c2ccc(O)cc2)N1c1ccc(F)cc1` [Ezetimibe] was tested, and the normalised cell viability (treatment time: 3 days) was 1.02 ± 0.093 and the normalised cell viability (treatment time: 6 days) was 1.03 ± 0.022.
